# In all, about 340,000 compounds went through this assay and about 12,000 (3.5%) were called active. The shares of active, inactive and inconclusive entries below differ from those in the screen. The call rests on the fitted dose curve; in most records, active means well fitted inhibition curve with a large enough effect; inconclusive means small, poorly fitted or top-dose-only effect, or another doubt; inactive means no such curve, though single readings can be large or run the other way. No potency is given beside an inconclusive call; the fits are too rough.
# Assay: qHTS Assay for Inhibitors of Hepatitis C Virus (HCV)
# Conditions: Huh7.5.1 HCVcc-Cre (HCVcc is cell-culture hepatitis C virus) infection, luciferase reporter, 44 h; activity change, negative = inhibition: at 41.8 µM (top of the series) unless noted
# Method in brief: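 Antiviral activity was scored by luciferase reporter output from cells infected with HCVcc-Cre (~0.5 moi) in presence of compound, 44 h infection period, cells seeded 1,000/well 4 h prior.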
# On the % scale 0 is the no-effect control and ±100 the full control effect; potency means the concentration at half of the fitted maximal effect; tags describe the fitted curve by direction and shape.
SMILES,Potency,"activity change, negative = inhibition"
CCCCCCn1c(O)c(C=Nc2c(C)n(C)n(-c3ccccc3)c2=O)c(=O)[nH]c1=O,"inconclusive [inhibitor, single point]",
NC(=O)c1cn(-c2ccccc2)nc1-c1cc2ccccc2oc1=O,,inactive: 15.6%
CCc1ncc(CN2CCC(C(=O)Nc3cccc(-c4cscn4)c3)CC2)cn1,"inconclusive [inhibitor, partial curve]",
CN1CCN(C(=O)C2=C[C@@H](c3ccccc3)C[C@@H](OCc3ccc(CO)cc3)O2)CC1,,inactive: 0.654% [at 8.37 µM]
O=C1OC(Nc2ccc3c(c2)OCO3)c2ccccc21 (stereo unspecified),"inconclusive [inhibitor, partial curve]",
CN(C)c1ccc(/C=N/N=C(N)N)cc1[N+](=O)[O-],,inactive: 0.525%
CC(=O)OCCCNc1cc(Sc2ccc(Cl)cc2)c2nonc2c1[N+](=O)[O-],,inactive: 4.22%
Cc1ccc(N=Nc2ccc(O)c3ncccc23)cc1,"inconclusive [inhibitor, single point]",
CCOc1ccc2[nH]cc(C(=O)NCc3ccc(F)cc3)c(=O)c2c1,"inconclusive [inhibitor, full curve]",
CCCNc1nc2c(c(=O)n(C)c(=O)n2C)n1Cc1cccc(C)c1,"inconclusive [inhibitor, partial curve]",
Cc1c(C(C)(C)O)[nH]c2cc(C(F)(F)F)ccc12,"inconclusive [inhibitor, single point]",
CC1(C)CC(=O)C2=C(C1)N=C1c3ccccc3C(=O)C1C2c1ccc(Cl)cc1 (stereo unspecified),active: 12.6 µM,
O=C1/C(=C/Nc2cccc([N+](=O)[O-])c2)CCc2ccccc21,"inconclusive [inhibitor, partial curve]",
COc1ccccc1NC(=O)c1ccc(Br)c(S(=O)(=O)N2CCCC2)c1,"inconclusive [inhibitor, single point]",
O=C(Nc1nnc(-c2ccco2)s1)C1CC1,,inactive: 16.5%
CCOc1cc(/C=N/NC(=O)Nc2ccccc2)ccc1O,"inconclusive [inhibitor, single point]",
Cc1cccc(NP2(=O)NCCCN2)c1,,inactive: 9.6%
CN1C2CCC1CC(NC(=O)c1ccc(Cl)cc1)C2 (stereo unspecified),,inactive: -0.961%
Cc1nc(N)sc1-c1csc(Nc2ccc(Cl)cn2)n1,active: 8.91 µM,
COCC(=O)N/N=C\c1ccccc1OC/C=C/c1ccccc1,,inactive: -14.5%
Cc1ccsc1C(=O)OCC(=O)NCCNC(=O)COC(=O)c1sccc1C,"inconclusive [inhibitor, partial curve]",
CCOc1ccc(-c2ccc(SCC(=O)N3CCOCC3)nn2)cc1,"inconclusive [inhibitor, partial curve]",
Cc1cccc(NS(=O)(=O)c2ccc(C(=O)N3CCN(c4ccccc4O)CC3)cc2)c1C,"inconclusive [inhibitor, partial curve]",

SMILES,Potency,"activity change, negative = inhibition"
CCOC(=O)c1c(CC(C)C)csc1NC(=O)COC(=O)C1=NNC(=O)CC1,"inconclusive [inhibitor, single point]",
Clc1ccc2nc(-c3ccccn3)c(Nc3ccc4c(c3)OCO4)n2c1,"inconclusive [inhibitor, single point]",
O=C(CN1C(=O)c2ccc([N+](=O)[O-])cc2C1=O)NC1CCCCCC1,"inconclusive [inhibitor, partial curve, poor fit]",
CCC1=Nc2cc(C(=O)N3CCC4(CC3)OCCO4)ccc2Sc2ccc(Br)cc21,"inconclusive [inhibitor, partial curve]",
Cc1ccc(NC(=O)c2ccc(N3CCCC3=O)cc2)cc1S(=O)(=O)N1CCCCC1,"inconclusive [inhibitor, full curve]",
CCOCc1c(C(=O)NCc2ccccc2CN2CCCC2)oc2ccccc12,"inconclusive [inhibitor, single point]",
Cc1ncc(CO)c(/C=N/NC(=O)c2cccc(S(=O)(=O)N3CCCC3)c2)c1O,"inconclusive [inhibitor, single point]",
O=S(=O)(c1cccc(Br)c1)N1CCN(c2ncnc3scc(-c4ccccc4)c23)CC1,"inconclusive [inhibitor, partial curve]",
COc1ccc(Cc2nc3ccc(C(=O)NC(C)Cc4ncccc4C)cc3o2)cc1OC (stereo unspecified),"inconclusive [inhibitor, partial curve]",
Cc1ccc(CNC(=O)CCCc2cn(C)c3ccccc23)cc1,"inconclusive [inhibitor, single point]",
Nc1nnnn1/N=C/c1ccccc1OCc1ccccc1,"inconclusive [inhibitor, single point]",
Clc1ccc2nc(-c3ccccc3)nc(C(Cl)Cl)c2c1,"inconclusive [inhibitor, single point]",
Cc1cc(C)c(C#N)c(Nc2cccc(C)c2C)n1,,inactive: -9.89%
CC(=Nc1cccc(O)c1)c1sc2ccccc2c1O,,inactive: 10.3%
Cc1ccc(N2CC(C(=O)Nc3ccccc3OC(F)F)CC2=O)cc1 (stereo unspecified),,inactive: -12.3%
CCOC(=O)CSc1ncc(-c2cccc(Cl)c2)cn1,"inconclusive [inhibitor, single point]",
CC1CC(C)CN(S(=O)(=O)c2ccc(Oc3ccc([N+](=O)[O-])cc3)cc2)C1 (stereo unspecified),"inconclusive [inhibitor, single point]",
O=C(C1COc2ccccc2O1)N1CCN(c2ccc([N+](=O)[O-])cc2)CC1 (stereo unspecified),active: 22.4 µM,
COc1ccc(Nc2cc(=O)oc3ccccc23)cc1,"inconclusive [inhibitor, partial curve]",
CCOc1cccc(/C=C(\C#N)C(=O)NC2CC2)c1,,inactive: 5.8%
O=C(CN1C(=O)/C(=C/c2ccccc2F)Oc2ccccc21)N1CCN(c2ccccn2)CC1,,inactive: -6.98%
Cc1cc(NC(=O)c2noc3c2CCCC3)no1,,inactive: -1.92%
COC(=O)c1c(NC(=O)COC(=O)CNC(=O)c2ccco2)sc(C)c1C,"inconclusive [inhibitor, single point]",
